Source: PubChem BioAssay AID1224863 (Southern Research Institute, 2016)
“And” between values parts separate entries of the source, which are not always exact repeats. Identical values can stand only once. The list shows a part of the results. Further columns of the screen follow, without active or inactive calls.

What was measured:
[1] = total CFTR protein upregulators, primary screen, cell-based, HeLa F508del-CFTR, immunofluorescence, viability (AID 1224863); conditions: 24 h, stronger effect = higher value, alamarBlue;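 as to fold increase: total CFTR protein by anti-CFTR immunofluorescence in fixed cells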
[2] = target: Cystic fibrosis transmembrane conductance regulator (Homo sapiens) (UniProt P13569); experiment: as above; conditions: 24 h, stronger effect = higher value; measured here: primary screen single dose 25 uM, at 25 µM, library dosed in µM unless noted
[3] = min viability: measured here: HeLa viability, dose 50, library dosed in µM unless noted, viability: measured here: primary viability 25 uM, at 25 µM, library dosed in µM unless noted

UniProt P13569, sequence (P13569 whole entry, looked up): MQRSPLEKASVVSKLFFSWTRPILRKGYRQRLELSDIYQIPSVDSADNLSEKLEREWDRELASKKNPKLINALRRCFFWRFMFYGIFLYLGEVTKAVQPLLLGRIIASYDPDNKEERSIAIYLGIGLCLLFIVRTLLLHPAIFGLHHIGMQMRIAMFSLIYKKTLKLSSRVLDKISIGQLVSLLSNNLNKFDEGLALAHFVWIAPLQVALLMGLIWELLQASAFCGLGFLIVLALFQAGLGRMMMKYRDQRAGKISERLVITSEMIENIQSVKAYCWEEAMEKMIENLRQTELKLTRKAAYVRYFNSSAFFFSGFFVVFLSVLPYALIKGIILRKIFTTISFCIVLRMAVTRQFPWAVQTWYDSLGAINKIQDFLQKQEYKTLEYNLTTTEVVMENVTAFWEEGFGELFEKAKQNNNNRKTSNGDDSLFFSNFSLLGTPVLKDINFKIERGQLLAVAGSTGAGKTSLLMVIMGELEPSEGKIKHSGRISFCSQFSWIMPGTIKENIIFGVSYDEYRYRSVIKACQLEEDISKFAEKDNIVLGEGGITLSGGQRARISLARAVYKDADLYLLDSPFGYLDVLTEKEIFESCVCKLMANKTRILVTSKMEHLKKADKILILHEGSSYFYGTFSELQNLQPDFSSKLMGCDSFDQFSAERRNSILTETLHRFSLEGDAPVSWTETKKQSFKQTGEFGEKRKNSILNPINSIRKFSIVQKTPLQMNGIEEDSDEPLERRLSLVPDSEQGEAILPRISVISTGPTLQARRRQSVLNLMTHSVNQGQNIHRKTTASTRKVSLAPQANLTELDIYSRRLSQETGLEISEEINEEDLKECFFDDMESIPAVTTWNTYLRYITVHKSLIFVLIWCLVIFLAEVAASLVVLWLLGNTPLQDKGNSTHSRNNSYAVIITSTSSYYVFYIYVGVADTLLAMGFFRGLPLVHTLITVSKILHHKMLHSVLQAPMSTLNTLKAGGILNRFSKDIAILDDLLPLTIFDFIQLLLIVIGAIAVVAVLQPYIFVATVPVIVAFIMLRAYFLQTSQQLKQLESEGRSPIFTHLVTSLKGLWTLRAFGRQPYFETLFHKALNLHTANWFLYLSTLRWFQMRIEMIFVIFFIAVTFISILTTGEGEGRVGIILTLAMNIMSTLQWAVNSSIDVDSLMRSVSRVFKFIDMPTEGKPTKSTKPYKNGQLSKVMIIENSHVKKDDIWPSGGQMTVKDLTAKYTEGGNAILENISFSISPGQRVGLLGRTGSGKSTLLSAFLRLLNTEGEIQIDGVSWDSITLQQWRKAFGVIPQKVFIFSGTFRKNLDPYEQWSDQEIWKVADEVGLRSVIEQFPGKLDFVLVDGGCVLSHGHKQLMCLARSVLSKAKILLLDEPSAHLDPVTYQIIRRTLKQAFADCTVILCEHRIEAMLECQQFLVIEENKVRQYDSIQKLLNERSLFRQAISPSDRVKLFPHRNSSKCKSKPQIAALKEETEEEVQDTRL

CC(C)(C)NC(=O)[C@H]1CCC2C3CCC4NC(=O)C=C[C@]4(C)C3CC[C@@]21C (stereo not given in full)
viability [1, 3]: 68%
fold increase [2]: 1.23

Nc1ccc2cc3ccc(N)cc3nc2c1
min viability [1, 3]: 30.9%
viability [1, 3]: 62%
fold increase [2]: 5.23

CN1[C@@H]2CC[C@H]1CC(OC(=O)C(CO)c1ccccc1)C2 (stereo not given in full)
min viability [1, 3]: 71.8%
viability [1, 3]: 101% and 75%
fold increase [2]: 0.88 and 3.61

O=C(O)/C=C/c1ccc(Cn2ccnc2)cc1
min viability [1, 3]: 52.1% [measured here: HeLa viability, alamarBlue, dose 25, library dosed in µM]
viability [1, 3]: 105% and 73%
fold increase [2]: 1 and 3.21

O=C1/C(=C/c2ccc(Br)s2)COc2ccccc21
min viability [1, 3]: 67.4% [measured here: HeLa viability, alamarBlue, dose 10, library dosed in µg/mL]
viability [1, 3]: 70% [measured here: primary viability 10 ug/mL, library dosed in µg/mL]
fold increase [2]: 1.46 [measured here: primary screen 10 ug/mL, library dosed in µg/mL]

CC(C)n1c(/C=C/[C@@H](O)C[C@@H](O)CC(=O)O)c(-c2ccc(F)cc2)c2ccccc21
viability [1, 3]: 88% and 82% and 95%
min viability ([1]; measured here: HeLa viability, dose 6.25, library dosed in µM): 84.3%
min viability ([1]; measured here: HeLa viability, dose 50, library dosed in µM): 82.1%
fold increase [2]: 1.87 and 1.67 and 2.05

CCCN[C@H]1CCc2nc(N)sc2C1
min viability [1, 3]: 59.9% [measured here: HeLa viability, alamarBlue, dose 12.5, library dosed in µM]
viability [1, 3]: 88% and 82%
fold increase [2]: 0.98 and 2.43

O=C1COc2ccc(C(=O)/C=C/c3ccc(N4CCOCC4)cc3)cc2N1
min viability [1, 3]: 67.8% [measured here: HeLa viability, alamarBlue, dose 20, library dosed in µg/mL]
viability [1, 3]: 92% [measured here: primary viability 10 ug/mL, library dosed in µg/mL]
fold increase [2]: 4.35 [measured here: primary screen 10 ug/mL, library dosed in µg/mL]

CC(=O)c1c(C)[nH]c(-c2csc(/C(C#N)=C\c3ccc[nH]3)n2)c1C
min viability [1, 3]: 56.2% [measured here: HeLa viability, alamarBlue, dose 20, library dosed in µg/mL]
viability [1, 3]: 60% [measured here: primary viability 10 ug/mL, library dosed in µg/mL]
fold increase [2]: 1.07 [measured here: primary screen 10 ug/mL, library dosed in µg/mL]

COCc1c(C(C)C)nc(C(C)C)c(/C=C/[C@@H](O)C[C@@H](O)CC(=O)O)c1-c1ccc(F)cc1
min viability [1, 3]: 68.1% [measured here: HeLa viability, alamarBlue, dose 25, library dosed in µM]
viability [1, 3]: 87%
fold increase [2]: 1.51

O=[N+]([O-])c1ccc(/C=C/c2nc(-c3ccc(F)cc3)cs2)cc1
min viability [1, 3]: 77.7% [measured here: HeLa viability, alamarBlue, dose 0.63, library dosed in µg/mL]
viability [1, 3]: 92% [measured here: primary viability 10 ug/mL, library dosed in µg/mL]
fold increase [2]: 1.59 [measured here: primary screen 10 ug/mL, library dosed in µg/mL]

COc1cc(/C=C(/C#N)c2nc(C)cs2)cc2c1OCO2
min viability [1, 3]: 68.9% [measured here: HeLa viability, alamarBlue, dose 0.31, library dosed in µg/mL]
viability [1, 3]: 105% [measured here: primary viability 10 ug/mL, library dosed in µg/mL]
fold increase [2]: 7.36 [measured here: primary screen 10 ug/mL, library dosed in µg/mL]

Oc1cccc2ccc(/C=C/c3cccc4c3OCO4)nc12
min viability [1, 3]: 62.6% [measured here: HeLa viability, alamarBlue, dose 20, library dosed in µg/mL]
viability [1, 3]: 72% [measured here: primary viability 10 ug/mL, library dosed in µg/mL]
fold increase [2]: 1.6 [measured here: primary screen 10 ug/mL, library dosed in µg/mL]

CN(Cc1cnn(-c2ccccc2)c1)C(=O)c1cnc2sccn2c1=O
min viability [1, 3]: 99.8% [measured here: HeLa viability, alamarBlue, dose 20, library dosed in µg/mL]
viability [1, 3]: 94% [measured here: primary viability 10 ug/mL, library dosed in µg/mL]
fold increase [2]: 1.5 [measured here: primary screen 10 ug/mL, library dosed in µg/mL]

CNc1ccc(Cl)cc1N
min viability [1, 3]: 60.6% [measured here: HeLa viability, alamarBlue, dose 1.25, library dosed in µg/mL]
viability [1, 3]: 80% [measured here: primary viability 10 ug/mL, library dosed in µg/mL]
fold increase [2]: 2.25 [measured here: primary screen 10 ug/mL, library dosed in µg/mL]

C=C[C@H]1CN2CC[C@H]1C[C@@H]2[C@@H](O)c1ccnc2ccc(OC)cc12
viability [1, 3]: 103%
fold increase [2]: 1.01

O=C(c1cc(C(=O)c2ccccc2)c2nc3ccccc3n2c1)c1ccccc1O
min viability [1, 3]: 88.9% [measured here: HeLa viability, alamarBlue, dose 20, library dosed in µg/mL]
viability [1, 3]: 77% [measured here: primary viability 10 ug/mL, library dosed in µg/mL]
fold increase [2]: 2.39 [measured here: primary screen 10 ug/mL, library dosed in µg/mL]

O=C1/C(=C/c2ccccc2F)CSc2ccccc21
min viability [1, 3]: 55.2% [measured here: HeLa viability, alamarBlue, dose 20, library dosed in µg/mL]
viability [1, 3]: 72% [measured here: primary viability 10 ug/mL, library dosed in µg/mL]
fold increase [2]: 1.33 [measured here: primary screen 10 ug/mL, library dosed in µg/mL]

CN1C2CC[C@@H]1CC(OC(=O)[C@H](CO)c1ccccc1)C2 (stereo not given in full)
viability [1, 3]: 93%
fold increase [2]: 1

CCc1ccc(C(=O)NC2CCN(C3CC3)CC2)o1
min viability [1, 3]: 67.7% [measured here: HeLa viability, alamarBlue, dose 0.31, library dosed in µg/mL]
viability [1, 3]: 96% [measured here: primary viability 10 ug/mL, library dosed in µg/mL]
fold increase [2]: 1.65 [measured here: primary screen 10 ug/mL, library dosed in µg/mL]

C=C[C@@H]1CN2CC[C@@H]1C[C@H]2[C@H](O)c1ccnc2ccc(OC)cc12
viability [1, 3]: 97%
fold increase [2]: 1.12

O=C(OCc1coc(-c2cccs2)n1)c1sccc1-n1cccc1
min viability [1, 3]: 64.1% [measured here: HeLa viability, alamarBlue, dose 0.078, library dosed in µg/mL]
viability [1, 3]: 83% [measured here: primary viability 10 ug/mL, library dosed in µg/mL]
fold increase [2]: 1.6 [measured here: primary screen 10 ug/mL, library dosed in µg/mL]

O=c1[nH]c(=O)n(C2CC2)c2nc(C3CC3)nc(SCc3nnsc3Cl)c12
min viability [1, 3]: 80.9% [measured here: HeLa viability, alamarBlue, dose 1.25, library dosed in µg/mL]
viability [1, 3]: 91% [measured here: primary viability 10 ug/mL, library dosed in µg/mL]
fold increase [2]: 1.53 [measured here: primary screen 10 ug/mL, library dosed in µg/mL]

CC(C)Cn1nnnc1Sc1nnnn1-c1ccccc1
min viability [1, 3]: 64.2% [measured here: HeLa viability, alamarBlue, dose 20, library dosed in µg/mL]
viability [1, 3]: 91% [measured here: primary viability 10 ug/mL, library dosed in µg/mL]
fold increase [2]: 1.68 [measured here: primary screen 10 ug/mL, library dosed in µg/mL]

c1ccc(-c2csc3nc(-c4ccccn4)nc(N4CCN(CC5CCCO5)CC4)c23)cc1 (stereo not given)
min viability [1, 3]: 68.2% [measured here: HeLa viability, alamarBlue, dose 1.25, library dosed in µg/mL]
viability [1, 3]: 90% [measured here: primary viability 10 ug/mL, library dosed in µg/mL]
fold increase [2]: 2.89 [measured here: primary screen 10 ug/mL, library dosed in µg/mL]

OCCCc1nc2ccccc2n1CC(O)COC(c1ccc(F)cc1)c1ccc(F)cc1 (stereo not given)
min viability [1, 3]: 64.4% [measured here: HeLa viability, alamarBlue, dose 1.25, library dosed in µg/mL]
viability [1, 3]: 81% [measured here: primary viability 10 ug/mL, library dosed in µg/mL]
fold increase [2]: 1.69 [measured here: primary screen 10 ug/mL, library dosed in µg/mL]
